# Assay results from PubChem BioAssay AID2675 (National Center for Advancing Translational Sciences (NCATS), 2010).
# The whole screen tested about 280,000 compounds, of which about 100 (0.036%) were called active. Inconclusive means that the source gave no clear call. Such entries were picked first, then a sample of the others. The call rests on the fitted dose curve; in most records, active means well fitted inhibition curve with a large enough effect in the signal ratio, with a control signal flat (not every such curve was filed as active); inconclusive means small, poorly fitted or top-dose-only effect, or effect the other way, or a change in a side signal; inactive means no such curve, though single readings can be large or run the other way; the % refers to the signal ratio. Where the call is inconclusive, the potency comes from a doubtful curve fit. “Side channel” marks fits to a control or component signal instead of the main read-out.
# Target: Muscleblind-like protein 1 (Homo sapiens) (UniProt Q9NR56)
# Experiment: qHTS Assay for Inhibitors of MBNL1-poly(CUG) RNA binding
# Conditions: TR-FRET MBNL1-His/biotin-(CUG)12 binding, 665/545 ratio; activity change, negative = inhibition: at 57.5 µM (top of the series)
# Procedure, shortened: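 MBNL1-His + Biotin-(CUG)12, cpd titration 92 nM–58 uM; Tb anti-His Ab 0.055 ng/ul, SA-XL665 5 nM (final); 60 min RT; ratiometric 665/545 nm, Ex 340 nm; normalized to buffer and full-complex controls.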
# On the % scale 0 is the no-effect control and ±100 the full control effect; potency means the concentration at half of the fitted maximal effect; tags describe the fitted curve by direction and shape or compound fluorescence and quenching.
# UniProt Q9NR56, sequence (Q9NR56 whole entry, looked up): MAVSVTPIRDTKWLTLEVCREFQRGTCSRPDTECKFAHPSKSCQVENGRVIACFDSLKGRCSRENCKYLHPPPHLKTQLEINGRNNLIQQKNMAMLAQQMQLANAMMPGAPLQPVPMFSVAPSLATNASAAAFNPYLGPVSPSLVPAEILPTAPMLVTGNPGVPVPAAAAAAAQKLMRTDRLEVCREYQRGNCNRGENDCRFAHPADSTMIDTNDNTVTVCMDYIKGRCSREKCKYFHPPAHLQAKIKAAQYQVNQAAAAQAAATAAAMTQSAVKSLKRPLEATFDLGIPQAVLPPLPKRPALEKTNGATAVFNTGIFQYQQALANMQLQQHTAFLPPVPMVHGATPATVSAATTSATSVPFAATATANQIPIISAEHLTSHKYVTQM
Structure (SMILES),Potency,"activity change, negative = inhibition"
O=C(CCCN1C(=O)/C(=C/c2ccccc2)SC1=S)Nc1ccc(O)cc1,"inconclusive: 22.4 µM [quencher, side channel, partial curve]",
CC(C)[C@@H]1NC(=O)c2cc([N+](=O)[O-])cc(I)c2OCC[C@@H](C(N)=O)NC(=O)[C@H](CCC(=O)O)NC1=O,"inconclusive: 39.8 µM [quencher, side channel, single point]",
O=[N+]([O-])c1cccc(Nc2nc(Cl)nc(Cl)n2)c1,"inconclusive: 14.1 µM [quencher, side channel, partial curve]",
CCn1cc(C(=O)Nc2ccc(C)c([N+](=O)[O-])c2)cn1,"inconclusive: 25.1 µM [quencher, side channel, single point]",
O=C(CN1Cc2ccccc2C1=O)Nc1ccc2c(c1)OCCO2,inactive,
Cc1ccnc(N(C(=O)Nc2ccccc2)C2=NCC(C)(C)S2)c1,inactive,
COc1ccc(OC)c(-c2c(=O)n(OCc3ccccc3Br)c3ccccc3[n+]2[O-])c1,"inconclusive: 10 µM [quencher, side channel, partial curve]",
O=C(Nc1nc(N2C(=O)c3ccccc3C2=O)n(-c2ccccc2)n1)c1ccccc1,,inactive: -7.53% [at 11.5 µM]
Cc1ccc(NC(=O)Cn2cc3c(n2)CCC(C)C3)cc1 (stereo not drawn),"inconclusive: 39.8 µM [quencher, side channel, partial curve, poor fit]",
O=C(O)c1cccc(NC(=O)c2cn(-c3ccccc3)nc2-c2cc3ccccc3o2)c1,inactive,
CC(=O)Nc1ccc(-c2ccc3nnc(C)n3n2)cc1,"inconclusive: 12.6 µM [quencher, side channel, partial curve]",
CCOc1ccc(N(C(=O)c2snc(C(N)=O)c2N)C(C(=O)NCC2CCCO2)c2c[nH]c3ccccc23)cc1 (stereo not drawn),"inconclusive: 22.4 µM [quencher, side channel, single point]",
CCN1CCN(C(=O)c2cc3cc([N+](=O)[O-])ccc3oc2=O)CC1,"inconclusive: 25.1 µM [quencher, side channel, partial curve]",
Nc1c(O)ccc2c1C(=O)c1ccccc1C2=O,"inconclusive: 3.16 µM [quencher, side channel, partial curve]",
CC1(C)CC(=O)c2cnn(-c3nc4ccccc4[nH]3)c2C1,inactive,
COC(=O)c1c(C)nn(-c2ccccc2)c1N,"inconclusive: 63.1 µM [inhibitor, single point]",
O=C(CN1C(=O)c2cccc3cccc(c23)C1=O)N1CCN(Cc2ccc3c(c2)OCO3)CC1,"inconclusive: 15.8 µM [quencher, partial curve]",
CC(=O)NC1=C(NC2CCS(=O)(=O)C2)C(=O)c2ccccc2C1=O (stereo not drawn),"inconclusive: 3.55 µM [quencher, side channel, partial curve]",
Cn1c(=O)c2c(ncn2CC(=O)Nc2cccc(S(=O)(=O)Nc3ccccc3F)c2)n(C)c1=O,inactive,

Structure (SMILES),Potency,"activity change, negative = inhibition"
CN(C)c1cc[n+](CCC(=O)Nc2cccc([N+](=O)[O-])c2N)cc1,"inconclusive: 28.2 µM [quencher, side channel, single point]",
Cc1ccc([N+](=O)[O-])cc1NC(=O)Nc1onc(C)c1C,"inconclusive: 2.51 µM [quencher, side channel, partial curve]",
O=C(Nc1ccccc1)C(=O)c1cn(CC(=O)N2CCCCC2)c2ccccc12,"inconclusive: 39.8 µM [fluorescent, side channel, single point]",
CCOc1cc2[nH]c(=S)n(CCCOC)c(=O)c2cc1OCC,inactive,
CCc1ccc(OCC(=O)NCC(c2ccc(Cl)cc2)N2CCCCC2)cc1 (stereo not drawn),inactive,
CC1Cc2ccccc2N1S(=O)(=O)c1cccc2nsnc12 (stereo not drawn),"inconclusive: 12.6 µM [quencher, side channel, partial curve]",
N/C(=N\OC(=O)Cc1ccc([N+](=O)[O-])cc1)c1ccc([N+](=O)[O-])cc1,"inconclusive: 12.6 µM [quencher, side channel, partial curve]",
Cc1cc(C)c2c(=O)[nH]c(SCc3ccccc3C)nc2n1,inactive,
Cc1ccc2nc(SCC(=O)Nc3cccc([N+](=O)[O-])c3)[nH]c2c1,"inconclusive: 39.8 µM [quencher, side channel, single point]",
Cc1cccc(CC(Cc2nc3ccccc3[nH]2)c2nc3ccccc3[nH]2)c1 (stereo not drawn),"inconclusive: 0.501 µM [quencher, side channel, single point]",
O=c1c2ccccc2nc(/C=C/c2ccc([N+](=O)[O-])cc2)n1CCCO,"inconclusive: 35.5 µM [quencher, side channel, partial curve]",
CCN(CC)CCCNc1oc(/C=C/c2ccccc2)nc1C#N,"inconclusive: 4.47 µM [quencher, side channel, partial curve]",
O=C(CSc1nnc(-c2cccc(F)c2)o1)Nc1nncs1,inactive,
Cc1cccc(N2CCN(C(=O)c3ccc4ncsc4c3)CC2)c1C,inactive,
Cc1ccc(C(=O)N/N=C/C=C/c2ccccc2)o1,"inconclusive: 25.1 µM [quencher, side channel, partial curve]",
O=C(CSc1nc2ccccc2c(=O)n1-c1ccccc1F)Nc1ccc2c(c1)CCC2,"inconclusive: 39.8 µM [fluorescent, side channel, single point]",
C/C(=N\NC(=O)c1cccc(Cl)c1)C1C(=O)c2ccccc2C1=O,"inconclusive: 31.6 µM [quencher, side channel, single point]",
Cc1ncc([N+](=O)[O-])n1CCOC(=O)Nc1ccc([N+](=O)[O-])cc1,"inconclusive: 4.47 µM [quencher, side channel, partial curve]",
Cc1ccc(Cc2nnc3n(-c4ccccc4)nc(C(=O)c4ccccc4)n3c2=O)cc1,"inconclusive: 39.8 µM [quencher, side channel, single point]",
